# Experimental data from paper PMC4336329 (PLoS ONE, 2015).
# In all, about 310,000 compounds went through this assay and about 14,000 (4.5%) showed an effect of 50% or more. The effect is printed as a negative number. The list shows a part of the results.
# Molecular target: human ether-à-go-go-related gene (hERG) potassium channel (human, UniProt Q12809)
# Assay: primary screen, population patch clamp on CHO cells stably expressing hERG
# 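Also: peak tail current of the secondary pulse compared with the same well before compound.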
# Chain of human ether-à-go-go-related gene (hERG) potassium channel (Q12809 whole entry, looked up): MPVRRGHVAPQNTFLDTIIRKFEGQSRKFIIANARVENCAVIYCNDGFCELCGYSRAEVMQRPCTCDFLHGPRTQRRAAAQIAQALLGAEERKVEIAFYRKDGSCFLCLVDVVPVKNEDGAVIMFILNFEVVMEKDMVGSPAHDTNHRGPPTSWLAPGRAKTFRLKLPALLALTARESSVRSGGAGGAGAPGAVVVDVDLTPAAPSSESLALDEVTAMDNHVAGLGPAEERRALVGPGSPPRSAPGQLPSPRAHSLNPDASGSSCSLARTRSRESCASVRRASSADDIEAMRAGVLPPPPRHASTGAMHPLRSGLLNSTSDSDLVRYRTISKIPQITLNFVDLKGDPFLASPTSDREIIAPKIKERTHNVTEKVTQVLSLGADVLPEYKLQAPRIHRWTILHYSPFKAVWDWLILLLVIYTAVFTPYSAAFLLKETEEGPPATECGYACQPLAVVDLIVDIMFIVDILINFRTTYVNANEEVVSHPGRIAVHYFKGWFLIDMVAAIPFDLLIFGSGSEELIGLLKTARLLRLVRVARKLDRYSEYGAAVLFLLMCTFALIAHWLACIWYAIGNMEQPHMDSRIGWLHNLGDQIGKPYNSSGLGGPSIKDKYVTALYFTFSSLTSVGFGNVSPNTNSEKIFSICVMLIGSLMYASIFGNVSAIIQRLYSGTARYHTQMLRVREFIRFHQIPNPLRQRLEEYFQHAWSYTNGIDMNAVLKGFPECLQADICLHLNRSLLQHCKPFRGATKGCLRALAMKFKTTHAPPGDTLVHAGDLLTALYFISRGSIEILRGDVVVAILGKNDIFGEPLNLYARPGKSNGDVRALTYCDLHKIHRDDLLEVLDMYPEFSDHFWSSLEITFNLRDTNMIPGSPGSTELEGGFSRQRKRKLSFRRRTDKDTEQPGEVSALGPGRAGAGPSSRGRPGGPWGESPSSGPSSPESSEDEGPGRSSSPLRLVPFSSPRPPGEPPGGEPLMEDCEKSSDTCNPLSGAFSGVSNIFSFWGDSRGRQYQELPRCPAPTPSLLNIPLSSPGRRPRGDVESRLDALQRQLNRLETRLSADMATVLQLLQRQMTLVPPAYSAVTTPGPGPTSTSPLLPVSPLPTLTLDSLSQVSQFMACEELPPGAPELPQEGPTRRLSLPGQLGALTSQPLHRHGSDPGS
row,Structure (SMILES),"hERG current change (%, negative = inhibition) at 10uM [%]"
1,O=C(NCC(O)c1ccc([N+](=O)[O-])cc1)Nc1ccccc1 (stereo not drawn),-3.09
2,Cc1n[nH]c(=S)n1/N=C/c1ccccc1,-1.99
3,COc1cccc(NC(=O)C2C3CCC4C(CCC32)C4(Cl)Cl)c1 (stereo not drawn),16.3
4,O=C(NCc1ccco1)C1CC(c2ccccc2C(F)(F)F)=NO1 (stereo not drawn),19.1
5,Cc1ccc(NC(=O)CSc2nccc(=O)[nH]2)c(S(=O)(=O)N2CCOCC2)c1,1.19
6,COc1ccc(CCNC(=O)CSc2nnc3ccc(-c4cccnc4)nn23)cc1OC,21.2
7,Cc1ccccc1-n1c(C)nnc1SCC(=O)NCC1CCCO1 (stereo not drawn),-2.57
8,CCCNC(=O)C(Cc1ccc(C(F)(F)F)cc1)NC(=O)c1ccc2ccccc2n1 (stereo not drawn),14
9,Cc1c(C(=O)Nc2c(F)cc(F)cc2Br)sc2ncn(CC(=O)N3CCCC3)c(=O)c12,4.69
10,CCC(CC)C(=O)NCCc1ccc(S(N)(=O)=O)cc1,11.8
11,O=C(COC(=O)C1CCN(S(=O)(=O)c2cccs2)CC1)c1cc2ccccc2o1,8.29
12,O=C(CN1C(=O)CC(c2ccccc2)S(=O)(=O)c2ccccc21)N1CCCC1 (stereo not drawn),16.8
13,O=S(=O)(NC1CCCCC1)c1cccc2nsnc12,14.9
14,Cc1cc(C)c(S(=O)(=O)N2CCCCC2)c(C)c1-n1ncnn1,4.01
15,O=C(NCC(=O)N(Cc1cccs1)C(C(=O)NC1CCCC1)c1cccnc1)c1ccco1 (stereo not drawn),7.17
16,O=C(CN1CCCCC1)N/N=C/c1ccc(Cl)cc1,-66.9
17,COC(=O)[C@@H](NC(=O)Nc1ccc(OC)cc1)C(C)C,16.5
18,COc1ccc(Cl)cc1NC(=O)c1cc(C)no1,11.1
19,CCCCc1c(C)c(C#N)c2[nH]c3ccccc3n2c1=O,18.1
20,CCc1ccc(C(O)(C(C)C)C(CN2CCOCC2)c2ccccc2)cc1.Cl (stereo not drawn),5.31
21,O=C(CC(=O)N/N=C/c1ccccc1O)NCc1cccnc1,-6.06

row,Structure (SMILES),"hERG current change (%, negative = inhibition) at 10uM [%]"
1,O=S(=O)(c1c(F)cccc1F)N1CCN(C(=S)NCc2ccc3c(c2)OCO3)CC1,39.1
2,O=C(O)C(=O)O.O=[N+]([O-])c1cccc(OCCCN2CCC(Cc3ccccc3)CC2)c1,-78.1
3,COC(=O)C1=C(c2ccc(OC(F)(F)F)cc2)C[C@@H]2CC[C@H]1N2C(=O)NCCNC(C)=O,2.65
4,COc1cccc(N/C(SCc2ccccc2Cl)=C(/C#N)C(=O)NCc2cccs2)c1,9.67
5,CC1=C(C(N)=O)C(c2cccnc2)n2nc(SCc3ccccc3Cl)nc2N1 (stereo not drawn),0.298
6,COc1ccc(CCNC(=O)c2ccc(N3CCCCS3(=O)=O)cc2)cc1OC,8.5
7,O=C(CSc1nc2ccccc2[nH]1)Nc1nc(-c2ccccc2)c(-c2ccccc2)o1,-3.44
8,COc1ccc(NC(=O)CN(C)CC(=O)N(C)C2(C#N)CCC(C)CC2)cc1 (stereo not drawn),-8.16
9,CCN(C(=O)C1CCCN(c2nc(-c3ccc(OC)cc3)no2)C1)c1ccc(OC)cc1 (stereo not drawn),-0.461
10,COc1ccc(-c2noc(C3CCCN(S(=O)(=O)c4cccc(Cl)c4)C3)n2)cc1OC (stereo not drawn),-3.87
11,Cc1ccc(S(=O)(=O)N(CC(=O)N=Nc2c(O)[nH]c3ccccc23)c2ccc(C)c(C)c2)cc1,5.7
12,CCOc1ccc(C2C(C#N)=C(N)Oc3cc(C)n(Cc4ccco4)c(=O)c32)cc1OC (stereo not drawn),-9.3
13,CC(C)C(C(=O)OCC(=O)c1ccc2c(c1)NC(=O)CO2)N1C(=O)c2ccccc2C1=O (stereo not drawn),-3.1
14,Cc1c(C(=O)NCc2ccccn2)oc2c(Cl)cccc12,-19.3
15,CCc1cc(=O)oc2cc3oc(C)c(C)c3cc12,-7.76
16,CCC(C)c1ccccc1N1CC(C(=O)Nc2ccc(N3CCOCC3)cc2)CC1=O (stereo not drawn),0.799
17,CCC(C)c1ccc(S(=O)(=O)N2CCN(C(C)CC(=O)O)CC2)cc1 (stereo not drawn),3.41
18,O=C(Cc1ccc(Cl)cc1)Nc1ccc2oc(-c3ccncc3)nc2c1,7.8
19,Cc1cc(NC(=O)COC(=O)C2CCC2)no1,16.1
20,CCn1c(=O)c(C(=O)CN2CCc3ccccc32)c(N)n(Cc2ccccc2)c1=O,19
21,CCOCCCNS(=O)(=O)c1ccc(OC)c(Cl)c1Cl,5.64
